Reference: the GPR68 mutational scans of Howard et al. (2025)
Scores with a large standard error are left out. Not listed are two conditions whose scores span a narrow range. Read del as a deletion of the residues named and ins as an insertion between two positions. For some of these results: How much ogerin was present is not stated here.

B1: GPR68, Q15743 (parent)
chain: MGNITADNSSMSCTIDHTIHQTLAPVVYVTVLVVGFPANCLSLYFGYLQIKARNELGVYLCNLTVADLFYICSLPFWLQYVLQHDNWSHGDLSCQVCGILLYENIYISVGFLCCISVDRYLAVAHPFRFHQFRTLKAAVGVSVVIWAKELLTSIYFLMHEEVIEDENQHRVCFEHYPIQAWQRAINYYRFLVGFLFPICLLLASYQGILRAVRRSHGTQKSRKDQIQRLVLSTVVIFLACFLPYHVLLLVRSVWEASCDFAKGVFNAYHFSLLLTSFNCVADPVLYCFVSETTHRDLARLRGACLAFLTCSRTGRAREAYPLGAPEASGKSGAQGEEPELLTKLHPAFQTPNSPGSGGFPTGRLA

Assays:
[1] = variants of: B1; assay: cAMP reporter score (Enrich2 score, wild type = 0); higher = more signal; HEK293T, FACS bins
[2] = variants of: B1; assay: surface expression score (Enrich2 score, wild type = 0); higher = more signal; HEK293T, FACS bins

| Variant | cAMP reporter score ([1]; pH 5.5) | cAMP reporter score ([1]; pH 6) | cAMP reporter score ([1]; pH 6, modulator: ogerin) | cAMP reporter score ([1]; pH 6.5, modulator: ogerin) | surface expression score [2] |
| --- | --- | --- | --- | --- | --- |
| MGNITADNSSMSCTIDHTIHQTLAPVVYVTVLVVGFPANCLSLYFGYLQIKARNELGVYLCNLTVADLFYICSLPFWLQYVLQHDNWSHGDLSCQVCGILLYENIYISVGFLCCISVDRYLAVAHPFRFHQFRTLKAAVGVSVVIWAKELLTSIYFLMHEEVIEDENQHRVCFEHYPIQAWQRAINYYRFLVGFLFPICLLLASYQGILRAVRRSHGTQKSRKDQIQRLVLSTVVIFLACFLPYHVLLLVRSVWEASCDFAKGVFNAYHFSLLLTSFNCVADPVLYCFVSETTHRDLARLRGACLAFLTCSRTGRAREAYPLGAPEASGSSGAQGEEPELLTKLHPAFQTPNSPGSGGFPTGRLA [K330S] | -0.618 | -1.26 | -0.517 | -0.315 | -1.19 |
| MGNITADNSSMSCTIDHTIHQTLAPVVYVTVLVVGFPANCLSLYFGYLQIKARNELGVYLCNLTVADLFYICSLPFWLQYVLQHDNWSHGDLSCQVCGILLYENIYISVGFLCCISVDRYLAVAHPFRFHQFRTLKAAVGVSVVIWAKELLTSIYFLMHEEVIEDENQHRVCFEHYPIQAWQRAINYYRFLVGFLFPICLLLASYQGILRAVRRSHGTQKSRKDQIQRLVLSTVVIFLACFLPYHVLLLVRSVWEASCDFAKGVFNAYHFSLLLTSFNCVADPVLYCFVSETTHRDLARLRGACLAFLTCSRTGRAREAYPLGAPEASGTSGAQGEEPELLTKLHPAFQTPNSPGSGGFPTGRLA [K330T] | 0.792 | -1.01 | 0.601 | 0.24 | 0.686 |
